Over roughly 33,000 sequences, “E-score (-0.5 to 0.5)” has its median near -0.012; the highest 2% begin near 0.27. Some of the results follow.
Target: T1, Vhr1 (UniProt P40522)
T1 sequence: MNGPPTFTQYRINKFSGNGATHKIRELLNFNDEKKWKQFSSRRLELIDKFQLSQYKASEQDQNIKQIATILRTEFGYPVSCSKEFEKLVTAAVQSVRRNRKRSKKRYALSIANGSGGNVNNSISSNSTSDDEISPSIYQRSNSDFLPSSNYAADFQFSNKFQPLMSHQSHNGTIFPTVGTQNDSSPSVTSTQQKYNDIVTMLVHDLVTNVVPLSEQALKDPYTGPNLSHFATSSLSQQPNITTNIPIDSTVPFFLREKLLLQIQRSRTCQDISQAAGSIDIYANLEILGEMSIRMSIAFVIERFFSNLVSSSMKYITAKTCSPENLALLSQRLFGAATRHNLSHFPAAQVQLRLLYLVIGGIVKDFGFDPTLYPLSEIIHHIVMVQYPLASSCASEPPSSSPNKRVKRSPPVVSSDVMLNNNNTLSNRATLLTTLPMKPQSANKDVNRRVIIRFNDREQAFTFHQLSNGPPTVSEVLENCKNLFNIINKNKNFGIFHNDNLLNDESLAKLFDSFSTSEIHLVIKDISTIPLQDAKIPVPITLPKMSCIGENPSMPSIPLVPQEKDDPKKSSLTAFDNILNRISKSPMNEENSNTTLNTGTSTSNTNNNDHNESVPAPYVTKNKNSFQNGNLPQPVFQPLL
Assay: PBM E-score (8-mer binding enrichment) (E-score (-0.5 to 0.5)); higher = stronger / more preferred TF binding; most listed sequences are background and not binding sites
Conditions: protein concentration: 200 nM; construct: GST-full length
Procedure, shortened: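 Masliner-normalised scans of fluorescent anti-GST signal were the basis for scoring. That signal came from GST-tagged yeast transcription factors applied at about 100-200 nM to double-stranded universal all-10-mer Agilent arrays on fresh or once-stripped slides. Each ungapped eight-base word, pooled with its reverse complement, received an E-score from the Universal PBM Analysis Suite.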

Sequence | PBM E-score
GTTTGTTA | 0.00053
AAACTGCG | -0.124
ATGCGCGG | 0.0156
ATTGATCG | -7e-05
ATGGCAGA | 0.127
ATGATGCG | 0.0549
CCCGAGTC | 0.387
CCGCGCCG | -0.0381
CAACGTGA | 0.0552
CACACCAC | 0.256
AATCCTTC | -0.285
TACGTTCA | -0.115
AGGGGGGC | -0.162
AACTAGCC | -0.148
GAAGCGGC | -0.175
GACGTGAA | -0.067
ACAGCAAG | 0.115
ACGGCCCC | -0.111
CTAGTCGC | 0.0967
CAGGAACA | -0.0074
CTAGACAA | -0.104
CCTTGCCC | 0.0376
AGCCAAGG | 0.105
AAAACTTA | -0.0653
ATAACTTG | 0.184

Sequence | PBM E-score
TCCGTCAA | -0.128
ATTTACAA | -0.101
AATTTCAG | -0.0667
AATAACCG | -0.0637
GACCGCTA | -0.218
TAACATAA | 0.183
CCTTCATC | -0.134
GGTATAAA | -0.229
GAATGCTA | -0.124
GGCTTCTA | -0.187
ACACCACC | -0.00338
GCCATTCC | 0.0224
ATTCTGTG | 0.102
GATATATA | 0.284
CGCTATGC | -0.115
TGCTCTAA | -0.112
AGGCGCAG | 0.015
CGGCAACC | 0.096
AGGGAAAT | -0.0127
ACTACTTC | -0.00968
CAGTCTAC | -0.181
AGACAGAG | -0.127
ATGCAGCC | 0.0494
CGGAATGA | 0.102
AAGCGAGG | -0.109

Sequence | PBM E-score
CGACACAC | 0.205
CAAAACCG | -0.073
GATCGAGA | -0.00029
GGACTCGA | 0.107
TACCACGA | 0.0666
CGAAGCTC | -0.0506
ATACGGTC | -0.0319
ATTGCGCA | 0.0697
ATTGGTTC | 0.11
CCTTCGCG | 0.0573
CGCATGGA | -0.0655
CATTATGG | 0.086
ATCTTGTC | 0.11
CTCTCTGA | 0.0612
CTAACCGA | -0.0175
CATTGTTA | 0.0574
AGTGTGGC | -0.0195
ATGTGGCC | 0.0995
CATTCCAG | -0.0773
GGAACCCA | 0.163
GAGTGATA | 0.137
AACGCCAA | -0.0738
ATGGCCGG | -0.193
CCCGCTCA | -0.0605
AGAAGGAG | -0.129

Sequence | PBM E-score
AGGATTGA | 0.0401
CTGGGCGC | -0.0767
ACCCAATC | 0.0998
AGAACCAA | -0.0911
GACTGGCA | -0.0149
AGCAATCG | 0.108
CAATTGGG | -0.0505
ACGTTTGA | -0.121
CTTGGCAC | -0.17
GCCAGAAC | -0.0322
CGGGTAGC | -0.041
ATATAGCC | 0.169
CTTGGCCA | -0.0546
ATCTTCCA | -0.08
GCGACTAA | 0.316
CGGTTGTC | 0.00585
ATATCTAC | 0.146
GCCTGTAA | -0.11
AGCTCGAC | -0.00221
CCCAGGCC | -0.116
ATTACCTA | 0.0371
AGTTATAG | -0.0903
GCCCAGCA | -0.00993
AGTGAGAG | -0.185
CAGAGACG | -0.112

Sequence | PBM E-score
AGATAACC | -0.215
ACTACCAA | 0.163
ACCGCGGA | 0.21
AGCTTTAC | -0.262
AGGAAGAA | -0.232
GAAAGAAC | -0.227
ACGGGGAC | 0.0732
CGTTGACA | -0.0813
GGCCTGGA | -0.24
CACAAGTC | -0.144
CCGTCCCA | -0.0107
ATGATAAT | 0.151
ATGCTCGA | 0.0251
GATGGGTA | 0.285
AAAGTGGC | -0.0225
GCTCATAA | 0.0821
ATCAGGTC | 0.0435
AATAATCG | 0.0624
AGTGTCCC | 0.0737
ACGGATAC | 0.167
CTTTGACA | -0.325
CACCAGCC | 0.143
CTTCGCAA | -0.0787
GGGCCATA | -0.0954
TATAGCGA | -0.0145

Sequence | PBM E-score
AAACATGA | 0.149
TCTCTTAA | -0.235
ACCGGTAG | 0.00307
GAAAGATA | 0.116
GGTGGCCA | -6e-05
AATCCGAC | 0.139
CGTACTAA | 0.153
AGTGGGCG | 0.0687
CGACTGAA | 0.0233
CTGTACTC | -0.0776
ACCCCCCA | -0.206
CGCTCCGA | 0.162
ACAATGGA | 0.153
ACGCTTCC | -0.0935
GACTAAAC | 0.121
CAAGCGTG | -0.00913
TCTATACA | 0.0487
AGACTAGG | -0.00114
ATCTTAGG | -0.132
AACCTCGT | -0.023
CCCACAGA | 0.0858
GTGGTGGA | -0.0346
ATCAGATA | 0.173
CGGATAGA | 0.0515
CGATTAGA | -0.0717

Sequence | PBM E-score
GGTACCTA | -0.0379
GCGACACA | 0.222
CACCAGTC | 0.0675
ATCGTAGG | -0.144
ATATAATG | 0.112
ACTGTGGG | 0.119
AGATTGCA | -0.0423
CGTAGATA | -0.137
CCGGGCAA | -0.0163
CCCGCGTC | 0.19
GAGTAGCC | -0.00716
TCCTTTAA | -0.164
CGAGTGAC | 0.0621
GGGAGACA | 0.123
AATGTGCC | -0.213
GCGTTACC | -0.138
CCGCGAGC | -0.0165
GTGTCGCA | -0.0584
AATGGGTA | 0.0928
GCCCCTCC | 0.331
CCTGCATA | -0.0346
CCCAGTAC | -0.0361

From the supplement of paper PMC3334620
